Data: the supplement of paper PMC3334620
Over roughly 33,000 sequences, “E-score (-0.5 to 0.5)” has its median near -0.056; the highest 2% begin near 0.38. Some of the results follow.

molecular target: Stb4 (UniProt P50104); assay: PBM E-score (8-mer binding enrichment) (E-score (-0.5 to 0.5)); higher = stronger / more preferred TF binding; most listed sequences are background and not binding sites; conditions: protein concentration: 200 nM; construct: GST-DNA-binding domain
Protocol: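 Universal 'all 10-mer' protein binding microarrays (Agilent AMADID 015681) probed with GST-tagged S. cerevisiae TFs (full-length or DBD) made by in vitro transcription/translation (PURExpress), about 100-200 nM. Bound TF was detected with fluorescent anti-GST. Each ungapped 8-mer (which stands for itself and its reverse complement) is scored by the PBM enrichment score (E-score), a modified Wilcoxon-Mann-Whitney statistic from -0.5 to +0.5, computed with the Universal PBM Analysis Suite. Scale: above 0.35 generally sequence-specific binding.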

Sequence | PBM E-score
AGCAGTCG | 0.0808
AAAGGTAT | 0.0369
ACCGAAAT | 0.316
AGCCACCC | 0.0842
AGCATAAA | 0.0111
GAACCAAA | -0.115
CAACTAAG | -0.196
GCTGCGCC | -0.112
CAAGTCTC | -0.0352
CAGCTGCA | -0.06
TTACGTAA | -0.339
AGCCCTTC | -0.15
TAAAGTGA | 0.00975
ACTCCAAG | -0.275
ACGGTAAA | 0.172
GCCCTAGC | -0.122
CATATTTA | -0.121
GCGGTCAA | 0.0902
CCGCGGTC | 0.108
AAGATAAT | -0.0242
GTCTAGCA | -0.104
TTTGCAAA | -0.196
TCACGTCA | -0.0663
GAAGTGCA | -0.21
AGTGGGGC | -0.109

Sequence | PBM E-score
ACCTGCAG | -0.416
AACTGTCA | -0.193
AGTTGCGA | -0.282
AGCTAGTC | -0.17
CATCTCGC | -0.0526
CCCTCGAG | -0.254
CCTATGAG | -0.227
AAGACGTC | -0.173
AAAAACGC | 0.143
AGATGACG | -0.348
AGAGCGAC | -0.173
GAGTTGCC | 0.197
ACCCTTGA | -0.00133
ACAGTGTA | -0.0881
ACAATGCG | -0.115
ATATGTCC | 0.145
ACCCCCAT | -0.28
CGTGGGAG | -0.113
CCGAACCC | 0.37
CTTCCTAA | -0.157
CCGCACTA | 0.187
TAATCCAA | -0.0845
CCCGAGTA | 0.383
CCCCAAAC | -0.258
ACTCGAAG | -0.167

Sequence | PBM E-score
CCCTCTCA | -0.334
GCCACGAA | -0.187
ATACTTTC | 0.133
ACTCTGTC | -0.258
CTTGATAA | -0.152
GTCAGCAC | -0.0387
CGCTCGCA | 0.104
AAAACAGA | -0.0197
CTGACGGC | 0.128
AATTACGC | -0.24
AGGCAAAA | -0.0302
ATCACAGA | -0.155
AGCCAGAT | 0.0138
GGAACTAA | 0.308
ACCGAGAG | 0.342
AACGGACC | 0.129
GCCGCTTA | 0.206
CCGAAGAG | 0.417
GGGCGTGA | 0.0344
TATACAAA | -0.0128
GTCGACAA | -0.0559
ACAAGTTC | -0.0154
CCAATGAG | -0.134
AGCTGTCG | -0.0511
AGCGTTAA | -0.162

Sequence | PBM E-score
ACGTGTTA | -0.126
AGATAGCA | -0.0652
AGAAGGAA | 0.0573
ATTGTTCA | -0.143
GACTTTAC | 0.144
CTAGGCGA | -0.104
ACGGGAAC | 0.279
CGATAGTA | 0.0339
CTGTTTGC | -0.141
CTACATGA | -0.223
CGATTGAA | 0.045
TAGCGCGA | -0.00656
AGGCCACG | 0.0562
AATCACTC | -0.218
CATTCTAA | -0.0564
ATCAGAGA | -0.258
ACGCACCA | -0.191
TACTATCA | -0.0463
CATATACC | 0.131
GTTTCGCA | -0.131
GGGGCAGA | -0.113
ACCCGCGT | 0.188
ACTGAGTG | 0.0235
GAAGTGTC | 0.181
AGGTTTCA | 0.00894

Sequence | PBM E-score
ACTAAGCA | -0.252
CCTGCTGC | -0.0427
AGCCGATA | 0.344
GGTCTGAA | -0.0589
CTTGACTC | -0.0427
ACTTACGG | 0.201
ATGAGGCC | -0.0823
GCTGTGGA | 0.0235
AAATGGCC | 0.0344
ACAGACGG | 0.0198
GAATCGCC | -0.0885
TTGGTAAA | -0.103
CCCGTGAA | 0.0258
AGGCTTCC | 0.176
CGGATGTA | 0.443
AGGAGGCA | -0.124
TGATCTAA | -0.204
GTAGAAAA | 0.0192
AACATCAC | -0.0473
GGAATCGA | 0.131
TTACAGAA | -0.212
GTATCACA | -0.0302
AGTCGTGG | -0.252
GAACAAAC | 0.0485
ATACACAC | -0.128

Sequence | PBM E-score
CAAAGGGA | -0.311
TGCGTTAA | -0.176
CCGGGCCC | 0.303
AGTACCAA | -0.114
AGCACGTC | -0.146
ACGGCGGA | 0.236
CACGGTTA | 0.27
CAAATTCC | 0.261
CCATAGAA | -0.151
AAATGTAT | 0.016
CAAGCCGA | 0.297
GGTCTTCA | -0.149
AAGCACAG | -0.0795
AACATTAT | 0.0108
CAGATGTA | -0.257
GGGGATAA | 0.00287
AAAGCAAC | -0.0821
AACAGTCG | 0.0503
TCTAGCCA | -0.0836
CCCTTCGC | -0.135
ACTCCGGG | 0.303
ACAGTATG | -0.0695
AGTCCACA | -0.167
CACTTCCA | -0.0868
AGCGCCTC | 0.0589

Sequence | PBM E-score
ACCCCACT | -0.0225
CATATAAC | -0.0403
CGGGTTCA | 0.223
ATCAACGA | -0.0442
TATAATCA | 0.0526
CAGGACAC | -0.0421
AAATATAT | 0.141
AACAACCG | 0.285
CGCAAAAA | 0.076
CAAGAATC | 0.097
TGCTGACA | -0.221
GCCAAGTA | -0.22
CGCTACTA | 0.0818
GCACGAAA | -0.0901
GCGCTGTA | -0.13
ATTCGTGA | -0.239
ACATTGCG | -0.0578
AACACCCA | -0.0859
ATCATATC | 0.129
GACAATGA | -0.112
GAGTGCCA | -0.0766
ATAGAGAT | -0.26
